From the supplement of paper PMC3334620
Whole data set: some 33,000 sequences, median “E-score (-0.5 to 0.5)” near -0.041, cut for the highest 2% near 0.37. The list shows a part of the results.

target: T1, Ecm22 (UniProt Q05958); experiment: PBM E-score (8-mer binding enrichment) (E-score (-0.5 to 0.5)); higher = stronger / more preferred TF binding; most listed sequences are background and not binding sites; settings: protein concentration: 200 nM; construct: GST-full length
T1 sequence: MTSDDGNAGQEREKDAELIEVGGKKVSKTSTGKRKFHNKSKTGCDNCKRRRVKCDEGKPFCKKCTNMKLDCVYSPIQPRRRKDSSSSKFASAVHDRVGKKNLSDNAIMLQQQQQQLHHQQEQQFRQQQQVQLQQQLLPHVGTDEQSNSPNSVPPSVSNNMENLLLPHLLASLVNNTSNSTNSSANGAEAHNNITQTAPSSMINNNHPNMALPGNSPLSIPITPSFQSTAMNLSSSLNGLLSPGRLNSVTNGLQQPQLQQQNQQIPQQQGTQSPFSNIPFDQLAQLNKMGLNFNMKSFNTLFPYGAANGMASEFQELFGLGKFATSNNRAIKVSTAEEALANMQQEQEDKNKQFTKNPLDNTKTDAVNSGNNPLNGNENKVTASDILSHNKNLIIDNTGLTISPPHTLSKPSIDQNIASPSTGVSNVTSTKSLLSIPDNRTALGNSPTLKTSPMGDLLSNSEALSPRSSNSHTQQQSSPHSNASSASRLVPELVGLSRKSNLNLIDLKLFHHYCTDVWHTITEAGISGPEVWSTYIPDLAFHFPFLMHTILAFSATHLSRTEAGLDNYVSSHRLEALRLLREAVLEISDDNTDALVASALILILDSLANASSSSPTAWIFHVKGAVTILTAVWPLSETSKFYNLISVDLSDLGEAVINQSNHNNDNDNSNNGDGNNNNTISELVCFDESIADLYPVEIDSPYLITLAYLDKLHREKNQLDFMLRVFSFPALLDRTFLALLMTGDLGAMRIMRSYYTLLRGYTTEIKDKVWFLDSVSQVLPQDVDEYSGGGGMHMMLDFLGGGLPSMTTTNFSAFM
Protocol: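 Universal 'all 10-mer' protein binding microarrays (Agilent AMADID 015681) probed with GST-tagged S. cerevisiae TFs (full-length or DBD) made by in vitro transcription/translation (PURExpress), about 100-200 nM. Bound TF was detected with fluorescent anti-GST. Each ungapped 8-mer (which stands for itself and its reverse complement) is scored by the PBM enrichment score (E-score), a modified Wilcoxon-Mann-Whitney statistic from -0.5 to +0.5, computed with the Universal PBM Analysis Suite. Scale: above 0.35 generally sequence-specific binding.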

Compared with TGCGACCA, GGCTCCGA is lower in “PBM E-score” value: 0.215 for the first, -0.099 for the second.

First: AATTACAT
Second: CGGGACAA
The “PBM E-score” value of the first is higher: 0.115 for the first, -0.107 for the second.

Going from CAGATGGC to ACATGAAA, the “PBM E-score” value falls from 0.0388 to -0.0889.

Compared with CATATGGC, GTTGGTGA is lower in “PBM E-score” value: 0.0588 for the first, 0.00215 for the second.

First: ATTTGAGG
Second: GGTCACTA
The “PBM E-score” value of the first is lower: -0.153 for the first, -0.0707 for the second.

First: GGCACCAA
Second: ATTCGGAC
The “PBM E-score” value of the first is lower: -0.00421 for the first, 0.163 for the second.

Going from GATGTAGA to ACTAATAT, the “PBM E-score” value rises from -0.271 to 0.11.

Compared with AACGCAAC, ATCGGTCG is higher in “PBM E-score” value: 0.145 for the first, 0.211 for the second.

Going from GGTCTACA to GTAAATGA, the “PBM E-score” value rises from -0.117 to 0.16.

First: AAAGCTCG
Second: ACGAATGG
The “PBM E-score” value of the first is higher: 0.289 for the first, 0.275 for the second.

Compared with AATGCGCT, CTTTGGGC is higher in “PBM E-score” value: -0.136 for the first, -0.079 for the second.

First: CAACGCTA
Second: CGCAACCA
The “PBM E-score” value of the first is lower: -0.227 for the first, -0.0632 for the second.

Going from CCCAGCAA to GCTAACCC, the “PBM E-score” value falls from -0.0485 to -0.0831.

First: CGAGAGGA
Second: ATAGCTAG
The “PBM E-score” value of the first is higher: 0.167 for the first, -0.26 for the second.

First: GTCAAGGA
Second: CATTGCAG
The “PBM E-score” value of the first is lower: -0.211 for the first, -0.0889 for the second.

First: CGACGGTA
Second: GATTTCTA
The “PBM E-score” value of the first is higher: 0.207 for the first, -0.0135 for the second.

Going from CCAGAGAC to AGTTGACC, the “PBM E-score” value rises from -0.182 to -0.132.

First: AACGAATT
Second: GAAGATTA
The “PBM E-score” value of the first is higher: 0.36 for the first, 0.0105 for the second.

Compared with TCATCACA, CCAACAAA is higher in “PBM E-score” value: -0.17 for the first, 0.065 for the second.

First: ACACAGCT
Second: TAGGTGCA
The “PBM E-score” value of the first is higher: -0.169 for the first, -0.176 for the second.

First: AAACCTAA
Second: GAAGAACA
The “PBM E-score” value of the first is higher: 0.0777 for the first, -0.143 for the second.

Compared with ACAGGAAG, CAGGTGCC is lower in “PBM E-score” value: -0.122 for the first, -0.375 for the second.

First: GACTCATC
Second: ACGCACGG
The “PBM E-score” value of the first is lower: -0.147 for the first, 0.0901 for the second.

Compared with ATTCGGTA, GTCGATAA is lower in “PBM E-score” value: 0.24 for the first, -0.04 for the second.

Compared with AGATGGAC, AAAGAAGT is lower in “PBM E-score” value: -0.084 for the first, -0.0866 for the second.

First: ACTGAGCA
Second: ATGGGGGA
The “PBM E-score” value of the first is higher: -0.0478 for the first, -0.263 for the second.

Compared with CAACTTGA, GCCAGGAC is lower in “PBM E-score” value: -0.136 for the first, -0.226 for the second.

Going from TAGGGACA to AAGAAGGG, the “PBM E-score” value rises from -0.204 to -0.136.

Going from GGAAGAAA to CCCTTTGA, the “PBM E-score” value falls from -0.124 to -0.291.

Compared with GCCGCACA, ATATAACC is higher in “PBM E-score” value: -0.00675 for the first, 0.0466 for the second.

Compared with GCAGCCCA, AAACCTAG is higher in “PBM E-score” value: -0.297 for the first, -0.099 for the second.

Compared with AAAATATA, AGTTTGGA is lower in “PBM E-score” value: 0.0721 for the first, -0.0551 for the second.

First: ATGCAAGG
Second: AATCAGGT
The “PBM E-score” value of the first is lower: -0.193 for the first, 0.00411 for the second.

Compared with TCAACTCA, GAGCCAAA is lower in “PBM E-score” value: -0.134 for the first, -0.159 for the second.

Going from AATCTCCC to AAGTTCAA, the “PBM E-score” value rises from -0.117 to -0.0634.

Compared with AGCTACCA, CTATAAAG is lower in “PBM E-score” value: -0.228 for the first, -0.263 for the second.

Going from GATTTGCC to GACCGTGA, the “PBM E-score” value falls from 0.0159 to -0.241.

Compared with CACCCATC, AAAGCAAA is higher in “PBM E-score” value: -0.0932 for the first, 0.057 for the second.

Compared with AGCTGTTC, CTGTGGCC is lower in “PBM E-score” value: -0.102 for the first, -0.212 for the second.

Going from CAATTAAG to AAACAGGT, the “PBM E-score” value rises from -0.0761 to -0.0509.

Compared with AGCGCAAG, AGTGGGTC is lower in “PBM E-score” value: -0.183 for the first, -0.29 for the second.

Compared with CTCCGTCA, AGGCACCT is lower in “PBM E-score” value: -0.137 for the first, -0.354 for the second.

First: AATCTGCT
Second: AGGTTGCC
The “PBM E-score” value of the first is higher: -0.146 for the first, -0.308 for the second.

Going from CTCAATCA to CCTGGCCC, the “PBM E-score” value rises from -0.213 to -0.206.

First: CTAAGTAA
Second: ACGTAACG
The “PBM E-score” value of the first is lower: 0.0684 for the first, 0.16 for the second.

Compared with AGCGTAAC, CCGTTACG is higher in “PBM E-score” value: 0.111 for the first, 0.264 for the second.

Going from GACGAGTC to AAAGTTGG, the “PBM E-score” value falls from 0.115 to -0.0592.

Compared with GGTGCCAC, TAATGATA is higher in “PBM E-score” value: -0.154 for the first, 0.17 for the second.

Going from AAAATGAT to ACGCTCTA, the “PBM E-score” value falls from 0.109 to 0.0214.

Going from CTTTCCCA to CGCTGCGA, the “PBM E-score” value rises from -0.21 to 0.111.

Compared with GCAAAGGC, CACATAAG is higher in “PBM E-score” value: -0.213 for the first, -0.156 for the second.

Compared with AGTATACT, CACCGGGA is lower in “PBM E-score” value: 0.102 for the first, -0.197 for the second.

First: ATTAGAAA
Second: ACGCCGAT
The “PBM E-score” value of the first is higher: 0.123 for the first, 0.0699 for the second.

Compared with GAGCGTAA, AGCCAACT is lower in “PBM E-score” value: 0.0493 for the first, -0.256 for the second.

Compared with AACTGATT, GGAAGACC is lower in “PBM E-score” value: -0.0943 for the first, -0.116 for the second.

First: CCATATAA
Second: AGCGTGCG
The “PBM E-score” value of the first is lower: 0.0333 for the first, 0.13 for the second.

Compared with CATTTAGC, GTAGAAGA is lower in “PBM E-score” value: 0.0683 for the first, 0.0356 for the second.

First: AATACGAA
Second: CCGCCCTA
The “PBM E-score” value of the first is higher: 0.419 for the first, -0.29 for the second.

First: AACAGCTA
Second: GAAGAGAC
The “PBM E-score” value of the first is lower: -0.146 for the first, 0.0183 for the second.

Going from CACAACCC to CCGATCGG, the “PBM E-score” value rises from -0.0182 to 0.105.

First: AAATGCTT
Second: AATCCGCC
The “PBM E-score” value of the first is lower: -0.178 for the first, -0.139 for the second.

Going from CTCCATGC to CCCCTTCA, the “PBM E-score” value falls from -0.314 to -0.439.

Compared with ACGTTAGT, ATCCAGAT is lower in “PBM E-score” value: 0.0887 for the first, -0.0675 for the second.

Going from TCAGCACA to ACGGATGA, the “PBM E-score” value rises from -0.0232 to 0.19.

Going from GGCTAGGA to GTTCGGAA, the “PBM E-score” value rises from -0.21 to 0.13.

Going from AGTGGCGC to GCGTACCA, the “PBM E-score” value rises from 0.0668 to 0.273.

First: GGCAGACC
Second: GAGTCGGC
The “PBM E-score” value of the first is lower: -0.334 for the first, -0.00782 for the second.

Going from AGGGTGTG to CTCTTTCA, the “PBM E-score” value rises from -0.225 to -0.0714.

Going from CGTCAGAA to ACCTTCGT, the “PBM E-score” value rises from -0.0632 to 0.32.

Going from AACCTGGT to ACTAGCCT, the “PBM E-score” value falls from 0.0484 to -0.2.

First: ACACCCCT
Second: ACCAGGAA
The “PBM E-score” value of the first is lower: -0.271 for the first, -0.106 for the second.

Compared with CAATCTGA, CAGCTCAC is lower in “PBM E-score” value: -0.149 for the first, -0.154 for the second.

First: CTTTGTCC
Second: ACCAACAG
The “PBM E-score” value of the first is higher: -0.044 for the first, -0.106 for the second.

Compared with ACCCCGCC, CCCGCCCA is lower in “PBM E-score” value: 0.0376 for the first, 0.0143 for the second.

First: CACGGTAC
Second: CATTATCC
The “PBM E-score” value of the first is lower: 0.113 for the first, 0.152 for the second.

Going from AAAGATGG to GCGTTCTA, the “PBM E-score” value rises from -0.286 to 0.0647.

First: GAGCATGA
Second: GAAGTATA
The “PBM E-score” value of the first is lower: 0.00429 for the first, 0.203 for the second.

Going from CCTGCACC to CGGGCGTA, the “PBM E-score” value rises from -0.208 to 0.0678.

First: CGGTCTAA
Second: TCTTGACA
The “PBM E-score” value of the first is higher: 0.0344 for the first, 0.0086 for the second.

First: ACTAAGTG
Second: GAGGAGCA
The “PBM E-score” value of the first is lower: 0.0267 for the first, 0.0722 for the second.

Going from ATCGTTTC to AAAACTAG, the “PBM E-score” value falls from 0.365 to -0.0165.

Going from GCAAAGCC to CCAGAACA, the “PBM E-score” value rises from -0.0701 to 0.117.

Compared with CGATGTTC, GGTCCGGA is higher in “PBM E-score” value: -0.0264 for the first, 0.0757 for the second.

Compared with TAATAATA, CTATACAA is lower in “PBM E-score” value: 0.177 for the first, -0.0134 for the second.

Compared with GAACAAGA, GCGGCGCA is lower in “PBM E-score” value: 0.0571 for the first, -0.188 for the second.

Compared with ATTGGTGC, GTTCTGAA is lower in “PBM E-score” value: 0.0267 for the first, -0.013 for the second.
